According to PubChem BioAssay AID485367 (National Center for Advancing Translational Sciences (NCATS), 2010):
Hit rate of the full screen: of about 330,000 compounds, about 560 (0.17%) were called active. The inconclusive results got no clear call from the source; some entries with a clear call stand among them for comparison. The call rests on the fitted dose curve; in most records, active means well fitted inhibition curve with a large enough effect; inconclusive means small, poorly fitted or top-dose-only effect, or effect the other way; inactive means flat fitted curve, though single readings scatter. No potency is given beside an inconclusive call; the fits are too rough.

The molecules below were run against ATP-dependent 6-phosphofructokinase (Trypanosoma brucei brucei) (UniProt O15648) (assay: qHTS Assay to Find Inhibitors of T. brucei phosphofructokinase). Details: T. brucei PFK, ADP-Glo luminescence; series mostly up to 57.5 µM.
UniProt O15648, sequence (O15648 whole entry, looked up): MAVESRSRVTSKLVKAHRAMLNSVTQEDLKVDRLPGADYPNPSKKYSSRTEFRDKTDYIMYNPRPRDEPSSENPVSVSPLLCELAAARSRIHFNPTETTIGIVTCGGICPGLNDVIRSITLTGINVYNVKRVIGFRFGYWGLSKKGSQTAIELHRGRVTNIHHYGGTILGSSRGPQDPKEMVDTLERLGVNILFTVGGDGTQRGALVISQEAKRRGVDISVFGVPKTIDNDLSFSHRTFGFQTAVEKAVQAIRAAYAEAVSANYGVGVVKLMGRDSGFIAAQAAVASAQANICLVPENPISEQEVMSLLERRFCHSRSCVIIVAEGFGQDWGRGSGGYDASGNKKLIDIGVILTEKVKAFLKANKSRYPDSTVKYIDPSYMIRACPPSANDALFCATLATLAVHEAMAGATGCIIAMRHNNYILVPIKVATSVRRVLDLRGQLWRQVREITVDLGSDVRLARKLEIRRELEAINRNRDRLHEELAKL
Method in brief: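 Compounds were pin-transferred as a titration series up to 57 uM into substrate buffer (0.5 mM F6P, 0.1 mM ATP, pH 8.0), then 1.25 nM PFK was added and reactions ran 45 min before ADP-Glo detection.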
Further: nearly all actives have a fitted effect of over 60% in size.
Potency means the concentration at half of the fitted maximal effect; tags describe the fitted curve by direction and shape.

Compound | Potency
CSc1ccccc1NC(=O)COC(=O)/C=C/c1ccco1 | inconclusive [falling, single point]
O=C(COc1ccc2ccccc2c1)NNC(=O)c1cccs1 | inconclusive [activator, full curve]
COc1ccccc1NS(=O)(=O)c1cc(NC(=O)C2CC2)ccc1N1CCOCC1 | inconclusive [falling, partial curve]
COc1ccc(C(=O)C[n+]2cn(C(F)F)c3ccccc32)c(F)c1 | inactive
CN(CC(=O)Nc1ccccc1Cl)C(=O)COC(=O)CCN1C(=O)C2CC=CCC2C1=O (stereo not given) | inconclusive [falling, single point]
COc1ccc(C(=O)N2CCN(c3ccccc3OC)CC2)cc1 | inactive
CC(=O)Nc1cccc(-c2nc3ccccc3c(=O)o2)c1 | inconclusive [falling, single point]
CNc1cc(CSC)nc(SCc2ccc(Cl)c(Cl)c2)n1 | active: 21.3 µM
CC1CCCC2(C1)NC(=S)N(c1ccccc1)N2 (stereo not given) | inconclusive [falling, single point]
Cc1cc(O)c(-c2cc(O)c(C)cc2O)cc1O | active: 12 µM
C/C(=N\O)c1cc(Cl)ccc1O | inconclusive [falling, single point]
CCC(=O)NCCc1nc2cc(NC(=O)c3ccccc3OC)ccc2n1C | inactive
Cc1sc(NC(=O)CSc2nnc3scc(-c4ccccc4)n23)c(C#N)c1C | inconclusive [falling, partial curve]
CCOC(=O)C(NC(C)=O)(Nc1ccc(S(=O)(=O)Nc2ncccn2)cc1)C(F)(F)F (stereo not given) | inactive
Cc1c(Br)c([N+](=O)[O-])nn1CC(=O)Nc1ccc(C(C)C)cc1 | inconclusive [falling, single point]
Cc1nn(-c2ccccc2)c(N2CCCCC2)c1/C=N/NC(=O)c1ccncc1 | inactive
CCC(C)NC(=O)c1cc2cc3ccc(OC)cc3nc2o1 (stereo not given) | inactive
COc1ccc(C2NN=C(c3c[nH]c4ccccc34)C2O)cc1 (stereo not given) | inactive
Cc1cc2c(NC(=O)Nc3ccccc3)cccc2nn1 | inactive
O=C(O)c1cc(O)c2c(c1)[C@H]([C@H]1c3cc(C(=O)O)cc(O)c3C(=O)c3c(O[C@@H]4O[C@H](CO)[C@@H](O)[C@H](O)[C@H]4O)cccc31)c1cccc(OC3O[C@H](CO)[C@@H](O)[C@H](O)[C@H]3O)c1C2=O (stereo not given in full) | inconclusive [falling, full curve]
Cc1nnc(SCC2=C(C(=O)O)N3C(=O)C(NC(=O)c4cccc(F)c4F)C3SC2)s1 (stereo not given) | inconclusive [activator, single point]
C=C(C)C(=O)NC1=NN(c2ccccc2)C(=O)C1 | inconclusive [falling, full curve]
Cc1ccc(/C=C/C(=O)NCc2ccco2)o1 | inactive

Compound | Potency
Cc1cc(C)c(NS(=O)(=O)c2ccc(Cl)c(C(=O)O)c2)c(C)c1 | inconclusive [falling, single point]
CN1CCc2cc(O)c(O)cc2C(c2ccccc2)C1 (stereo not given) | inconclusive [falling, partial curve]
O=C(NCCN1CCOCC1)C(=O)NCc1ccco1 | inconclusive [falling, single point]
CCOP(=O)(Nc1ccc2oc(=O)c3ccccc3c2c1)OCC | inconclusive [activator, partial curve]
CC(C)=CCCC(C)CN1CCC(N2CCC(C(=O)NC(C)C)CC2)CC1 (stereo not given) | inactive
O=c1cc(CN2CCN(c3ccccc3O)CC2)nc2sccn12 | inconclusive [falling, single point]
O=C(OCC(=O)N1CCN(C(=O)c2ccco2)CC1)c1ccccc1NCCO | inactive
Cc1ccc(NNS(=O)(=O)c2ccc(C)cc2)cc1 | inconclusive [falling, single point]
Cc1ccc(NC(=O)CSc2nc(NS(=O)(=O)c3ccc(C)cc3)cc(=O)[nH]2)cc1 | inconclusive [falling, single point]
CCOc1ccccc1N(CC(=O)NC(C)(C)C)C(=O)Cn1nnc(-c2ccc(C)o2)n1 | inconclusive [falling, single point]
C#CCOCCOCCOCCNc1nc(N2CCN(C(=O)CCCCCCCCCCNC(=O)Cn3cc(C[C@@H](C)O)nn3)CC2)nc(N2CCN(C(=O)CCCCCCCCCCNC(=O)[C@H](CCCCN)n3cc(C[C@@H](C)CC)nn3)CC2)n1 | inconclusive [activator, single point]
COc1ccccc1-c1nc(-c2ccccn2)no1 | inconclusive [falling, partial curve]
O=C1N/C(=C/c2ccco2)C(=O)N1Cc1ccccc1F | inconclusive [falling, single point]
CN(C(=O)c1ccc(NC(=O)Cc2cccc([N+](=O)[O-])c2)cc1)C1CCCC1 | inconclusive [falling, single point]
COc1ccc(CCN2C(=O)C3C4CC(C5C(C(N)=O)=NOC45)C3C2=O)cc1OC (stereo not given) | inconclusive [falling, single point]
COc1ccc(NC(=O)c2n[nH]c(=O)c3ccccc23)cc1S(=O)(=O)N1CCCCC1 | inactive
O=C(O)c1ccc(COc2ccccc2C=C2C(=O)c3ccccc3C2=O)cc1 | inconclusive [activator, single point]
O=c1[nH]n2c(=O)c3c([nH]c2c1N=Nc1cccc(Cl)c1)CCC3 | inconclusive [falling, full curve, poor fit]
Cc1ccc(-c2nc(-c3ccccn3)no2)cc1 | inconclusive [falling, single point]
O=C(NCC1COCCO1)c1ccc2nc(Cc3cccc(Cl)c3)oc2c1 (stereo not given) | active: 15.1 µM
NC(=O)COC(=O)CC(c1ccccc1)c1ccccc1 | inactive
CC1(C)Cc2c(sc(NC(=O)C(=O)NCCCN3CCOCC3)c2C#N)CO1 | inconclusive [falling, partial curve]
